In the RNAGym collection of RNA variant scans (doi:10.1073/pnas.2313332121):
This sample is rich in variants without activity.

B1: TPR 5TU (parent)
chain: GGAUCUUCUCGAUCUAACAAAAAAGACAAAUCUGCCACAAAGCUUGAGAGCAUCUUCGGAUGCAGAGGCGGCAGCCUUCGGUGGCGCGAUAGCGCCAACGUUCUCAACUAUGACACGCAAAACGCGUGCUCCGUUGAAUGGAGUUUAUCAUG

Variants of: B1
Test: polymerase ribozyme fitness, log enrichment relative to wild type (log ratio); higher = more active; in vitro selection for triplet polymerase activity
How it was run: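 A heterodimeric triplet polymerase ribozyme had each of its subunits mutagenized by PCR into a library, which was transcribed. One round of in vitro selection, done in triplicate, annealed each library with a biotinylated primer, its partner subunit and triplets, then incubated it frozen at −7 °C before gel excision of extended constructs, streptavidin-bead capture and RT-PCR. Fitness is the logarithm of genotype enrichment relative to wild-type enrichment, based on Illumina sequencing of inputs and outputs and inverse-variance-weighted replicate averages. A base-2 logarithm is used, and genotypes were kept only with ≥10 input reads and ≥1 read per output.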

Polymerase ribozyme fitness (log ratio), ≤ -4.2:
U55C G59C C75A U78C G84C C114G U135G
U56A A73U C87U A89U C116U C132U
U55A G70U G80C G84A U101C A106U
U55G C93U A137U
U55A C85A A97U A107U
U55A G62C U127A
A60G C99G C105A C125G
G58C A91C C132U G140U
U56A A66G G68A G81C A89C G117U A150U
U55A A66G C93A A119G A121U
U55A A60G A97U U101G U109A U134A
U56A C75G U104C C114G A115G
U55A G71U U90G
G59A A138U
A60U C99G U139A G141C U148C
G59C G94U C105U C118A A150C
C57A U82A C125A G141C U148C
C54U C72A C95U
C57G U61C G62C A66G G83U C95U
G58C A60C U146G
C57U U90G
U56A G136U U148A
C54G G65U G117C U148G
U56G C132U U151G
C54U U78A G86C G124C G133C G140U G141U
G58U C87A A106C C118A
U56A G88C C95U U139G
A60G C76U C93G C99G G141U
U61A C87U A115G C118A
C54U G59A U78A C79A C87A U134A
U56C C96G G100C
U55A C76G U77G U90A G133U G136U
U61A U82G G83U A89G G92C
U55A G84C U90C A107U C123G
A60C G62A C75U C79A C85A C114U C125U
A60U U77A C79U C85A
G58C C87G U102G G141U
C57G G84U C96A A97U C105G A107U G143C
G58A C75U G83U C95A C131A
C57G C93A G128U
A60C C85G C99A C103U C118G
G59U C69U G94U A98G U102G U135C
U56A A66U G68A U82A C96U
C54U C85U G92C C93G
U55A C76U C79U C93G C103A A142G
G58A G62A C85G A122G C125A G133A G143A
C57G A66C C75U C85G C87U U111C
G58A C103G C105U U151G
C54U C72G A91G G94A G128U G152A
G59A C108G C149G
C54G C87G
C54U G86U U146A U148C
U55G C87A G124U
U55G G67A A110C A115G
U61A U109C
U56A G83A C85U A91G C95U C99A U144G
C54G G68A C75G C76G U90G C95G A119U
U56G A91C C108U C149U
G58C U90G
U56A C87G C93A
U56G C85A G88U G100U C105G C118G
U61A G67C G88A
C54U G84A G124U A137C
U55A G94U U145C C149G
C57U A110C G136C
G58U C87A
C54G U55C C76A G92U U102A A137U U148A
G59C G62C C85A U109G C129G G143C
A60U G68C C87G U102A U104G
C57G C79A G83U C96U U101A
U56G G81C G86U G140A
G59C G88U A98G U102G A107U A137U
C54U G62U A66G C69G C76U C131G U146G
C57U A91U A110G
C54U G58A A89U C93U G100A G117C G124A
U55A U56A A60U G81C U102G A121U U145G
C54U C96A A121U U127A G141C
U56A G59U U78C A107G G140C
G59A C79G G86C U151G
G58C U61A A66C G88C C99G C132G
C54U C76G C93A A110U G141U
G59U G80U G88U U151A
U55A U102A U111G A142C
C54U U61A C95U A97C A137C
U55A C69A C96U U102G
C54U G65A G71U C93A U127G
C57U G59C C75A C85U
U61A C69G C87U A110U
A60U G92A U127C
U56A A60G G81A C108U U127G G143A
G58U A60C C79A U102G
G58C G70C G92C C114G C116U
A60G G80C G88U A98G G117A A119G A121C
C54G G59A A73G G83C A98U U148C
G58A U61A G84U U148G
U61G G62C C99U U134C
G59A A91U U148C
U56A C87A A113U
U56A U78A C93U C116G A137C
U55G A60U G84U C95U C96A A97C G126U U127A C149A
U61A G67C A142C U144A
A60C C85G C116U
C54U G88U
G58C G62U C85G A89U U104C A115G
C54U G67C G84C C85G A106U U146G
A60G G74A C87A G88C
U55G C76G
G59C G68C C79G G81U C95A C132U
C57G U61A G86C A137G
A60G C79U G83A G94C C108U U109A U148G
U55A G68A A115C A137C
C57G U77A G92U C105A C108G C132A A147C
G58C A91U
U56G A66C U82A G88C C96A A115C C116A G126U
U56A U78G G94A U146C
U55G U77G C96A
C57U G59C G65A G70A C79A A89U U104A
A60U C99A A138G G143C
G59A C87A G126A
G59C A64G C85A C87U C93U A110U U111G
C54G C69A
U61A G65A G67C G84U C96G U135G
U55G G94A U135C U139A
C54U G84A G100C U104C A115U
C57U C76U C85A G126C G133U
U55G G58U U77C U82A C87U G100A U139C
G59U A60C C76U A91G
C57A G94A G140C G141U
C54U G67C G70C A97C U109A C116U A137U U144A U145G
C54G U56G C96U C132A
A60G A137U U139G G141A
C57U A66C G71A G94U
C54G C76A A97U A138C
C57G G128C G136U
U56A A66C G94A A98U
U55A U90C C95A
G58A G71A G92C G143A
C54U G65C A121G A147C
U56A G88A A120C
G59A C79G C85U A110G
G58C G81A A89U C96A A107C U148C
G58U A91U U139A U148C
C54U C85U U101G G140A
C57G C103G G124A A147G
C57A G59A U61A C87A U135A
C54G G67U G94C C123U U127C
C54U G70U U78C G94C A115G A122C
U56G C85A G86U U134A
C57G U61A G83U A98U C99G A107G
G59A G67U G92A
U55A G83U C85U U90C A91G A137G
A60U A91U A142C U145G
G58C G68A C95A
U56A A66U C96U A110U
G59A C93A U135G G141A
U56A U82G C87G C103U
G58C U61A U82G A98G C116G U148A
A60U A73C G94C G100A A107U
U56G C99G C116A G143C U146A
U61G C87G C118A C125G A150U
C57U C96G G136U A137U U146C
U56G C79A U144A
A60C G81A U90G C95U
G59A A60G G88C
U61A G62C A64C G84A C116G C118A
C57G A97C C99U U139C
U56G G67C G86U C103U U104G C116G A119G U146C
